Results: the supplement of paper PMC4967469
Lines with a small IC50 respond at low doses; a fit beyond the top or the lowest dose is shown as a bound at that dose. AUC, from the same fit, is the share of area under the viability curve across the 256-fold dose range: 1 means no effect, lower means more sensitive. An inferred top dose was derived from the fitted curves, not read from the paper. For part of these data: An entry number marks a drug with two screens in the source, which often give different values.

Assays:
Assay in all cases: Viability of human cancer cell lines after 72 h of drug (GDSC screen)
CGP-082996 (CINK4) = compound: CCNc1cc(NC2CCC(O)CC2)nc(Nc2ccc3c(ccn3Cc3ccccc3)c2)n1 [CGP-082996 (CINK4)]; conditions: top dose 5.12 µM; top dose inferred
Method: (§1)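 Human cancer cell lines in 384-well plates, medium with 10% serum, drug for 72 h over a 256-fold dose range (nine 2-fold or five 4-fold steps up to the top dose). Adherent lines were fixed and stained with the nucleic acid dye Syto60, suspension lines read with resazurin; signal relative to control wells, capped at 0 and 100%. One two-parameter sigmoid per drug and line, fitted in a mixed model over all curves with the slope shared within a line.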

VX-702 = compound: NC(=O)c1ccc(N(C(N)=O)c2c(F)cccc2F)nc1-c1ccc(F)cc1F [VX-702]; conditions: top dose 2 µM; top dose inferred
Method: as §1

BMS-536924 = compound: Cc1cc(N2CCOCC2)cc2[nH]c(-c3c(NC[C@@H](O)c4cccc(Cl)c4)cc[nH]c3=O)nc12 [BMS-536924]
Method: as §1

A-770041 = compound: COc1cc(-c2nn([C@H]3CC[C@H](N4CCN(C(C)=O)CC4)CC3)c3ncnc(N)c23)ccc1NC(=O)c1cc2ccccc2n1C [A-770041]; conditions: top dose 5.12 µM; top dose inferred
Method: as §1

BIRB 0796 = compound: Cc1ccc(-n2nc(C(C)(C)C)cc2NC(=O)Nc2ccc(OCCN3CCOCC3)c3ccccc23)cc1 [BIRB 0796]; conditions: top dose 10 µM; top dose inferred
Method: as §1

Olaparib = compound: O=C(c1cc(Cc2n[nH]c(=O)c3ccccc23)ccc1F)N1CCN(C(=O)C2CC2)CC1 [Olaparib]
Method: as §1

SB-525334 = compound: Cc1cccc(-c2[nH]c(C(C)(C)C)nc2-c2ccc3nccnc3c2)n1 [SB-525334]; conditions: top dose 20 µM; top dose inferred
Method: as §1

Shikonin = compound: CC(C)=CC[C@@H](O)C1=CC(=O)c2c(O)ccc(O)c2C1=O [Shikonin]; conditions: top dose 16 µM; top dose inferred
Method: as §1

Wee1 inhibitor 681640 = compound: O=C1NC(=O)c2c1c(-c1ccccc1Cl)cc1[nH]c3ccc(O)cc3c21 [Wee1 inhibitor 681640]; conditions: top dose 2 µM; top dose inferred
Method: as §1

HG-5-113-01 = compound: CNC(=O)c1ccc(Nc2cc(Nc3ccccc3S(=O)(=O)C(C)C)c3cc[nH]c3n2)nc1 [HG-5-113-01]; conditions: top dose 10 µM; top dose inferred
Method: as §1

[1] = top dose 4 µM, screen: GDSC drug entry 1091, top dose inferred
[2] = top dose 5.12 µM, screen: GDSC drug entry 62
[3] = top dose 5 µM, screen: GDSC drug entry 1017, top dose inferred
[4] = top dose 10 µM, screen: GDSC drug entry 1495

| Cell Line | AUC (CGP-082996 (CINK4)) | IC50 (CGP-082996 (CINK4)) | AUC (VX-702) | IC50 (VX-702) | AUC (BMS-536924; [1]) | IC50 (BMS-536924; [1]) | AUC (BMS-536924; [2]) | AUC (A-770041) | IC50 (A-770041) | AUC (BIRB 0796) | IC50 (BIRB 0796) | AUC (Olaparib; [3]) | IC50 (Olaparib; [3]) | AUC (Olaparib; [4]) | IC50 (Olaparib; [4]) | AUC (SB-525334) | IC50 (SB-525334) | AUC (Shikonin) | IC50 (Shikonin) | AUC (Wee1 inhibitor 681640) | IC50 (Wee1 inhibitor 681640) | IC50 (BMS-536924; [2]) | AUC (HG-5-113-01) | IC50 (HG-5-113-01) |
| --- | --- | --- | --- | --- | --- | --- | --- | --- | --- | --- | --- | --- | --- | --- | --- | --- | --- | --- | --- | --- | --- | --- | --- | --- |
| 697 (lymphoblastic leukaemia, suspension) | 0.853 | 2.83 µM | 0.966 | > 2 µM | 0.915 | 3.86 µM | 0.715 | 0.795 | 1.86 µM | 0.932 | > 10 µM | 0.825 | 2.24 µM | 0.753 | 2.76 µM | 0.921 | > 20 µM | 0.464 | 0.816 µM | 0.875 | 1.32 µM |  |  |  |
| A704 (kidney, adherent) | 0.973 | > 5.12 µM | 0.989 | > 2 µM | 0.903 | > 4 µM | 0.711 | 0.698 | 1.13 µM | 0.982 | > 10 µM | 0.988 | > 5 µM | 0.988 | > 10 µM | 0.979 | > 20 µM | 0.705 | 3.7 µM |  |  | 1.23 µM | 0.82 | 5.53 µM |
| CP67-MEL (melanoma, adherent) | 0.817 | > 5.12 µM |  |  |  |  | 0.597 | 0.907 | > 5.12 µM |  |  |  |  |  |  |  |  |  |  |  |  | 0.718 µM |  |  |
| Calu-6 (lung adenocarcinoma, adherent) | 0.982 | > 5.12 µM | 0.983 | > 2 µM | 0.945 | > 4 µM | 0.953 | 0.946 | > 5.12 µM | 0.984 | > 10 µM | 0.984 | > 5 µM | 0.958 | > 10 µM | 0.925 | > 20 µM | 0.653 | 2.83 µM | 0.948 | > 2 µM | > 5.12 µM |  |  |
| EHEB (lymphoid neoplasm, suspension) | 0.977 | > 5.12 µM | 0.907 | > 2 µM | 0.936 | > 4 µM | 0.884 | 0.753 | 2.46 µM | 0.917 | > 10 µM | 0.961 | > 5 µM | 0.964 | > 10 µM |  |  | 0.607 | 2.25 µM | 0.95 | > 2 µM | > 5.12 µM |  |  |
| EKVX (lung adenocarcinoma, adherent) | 0.956 | > 5.12 µM | 0.952 | > 2 µM | 0.755 | 3.34 µM | 0.721 | 0.872 | > 5.12 µM | 0.913 | > 10 µM | 0.945 | > 5 µM | 0.964 | > 10 µM | 0.953 | > 20 µM | 0.721 | 8.94 µM |  |  | 2.87 µM | 0.791 | > 10 µM |
| HCE-4 (oesophagus, adherent) | 0.87 | 3.65 µM |  |  | 0.963 | > 4 µM | 0.893 | 0.727 | 1.26 µM |  |  |  |  |  |  | 0.991 | > 20 µM | 0.427 | 0.652 µM |  |  | 4.56 µM |  |  |
| HOP-62 (lung adenocarcinoma, adherent) | 0.927 | > 5.12 µM | 0.986 | > 2 µM | 0.975 | > 4 µM | 0.646 | 0.567 | 0.486 µM | 0.948 | > 10 µM | 0.935 | > 5 µM | 0.878 | > 10 µM | 0.947 | > 20 µM | 0.494 | 0.962 µM | 0.986 | > 2 µM | 0.812 µM |  |  |
| JSC-1 (B-cell lymphoma, suspension) | 0.948 | > 5.12 µM | 0.979 | > 2 µM |  |  | 0.866 | 0.977 | > 5.12 µM |  |  | 0.974 | > 5 µM | 0.978 | > 10 µM | 0.965 | > 20 µM | 0.638 | 2.39 µM | 0.979 | > 2 µM | 4.5 µM |  |  |
| KARPAS-620 (haematopoietic neoplasm, suspension) | 0.905 | > 5.12 µM | 0.991 | > 2 µM | 0.737 | 1.05 µM | 0.37 | 0.867 | 3.54 µM | 0.99 | > 10 µM | 0.991 | > 5 µM | 0.99 | > 10 µM | 0.851 | 12.1 µM | 0.376 | 0.48 µM | 0.991 | > 2 µM | 0.148 µM |  |  |
| KLE (endometrium, adherent) | 0.834 | > 5.12 µM | 0.975 | > 2 µM | 0.877 | > 4 µM | 0.784 | 0.683 | 1.4 µM | 0.939 | > 10 µM | 0.977 | > 5 µM | 0.95 | > 10 µM | 0.885 | > 20 µM | 0.464 | 0.754 µM | 0.96 | > 2 µM |  |  |  |
| KOPN-8 (B-cell leukaemia, suspension) | 0.944 | > 5.12 µM | 0.99 | > 2 µM | 0.989 | > 4 µM | 0.938 | 0.864 | 3.47 µM |  |  | 0.892 | 4.41 µM | 0.882 | 8.03 µM | 0.96 | > 20 µM | 0.336 | 0.377 µM | 0.947 | > 2 µM | > 5.12 µM |  |  |
| KP-N-RT-BM-1 (neuroblastoma, semi-adherent) | 0.967 | > 5.12 µM |  |  |  |  | 0.692 | 0.934 | > 5.12 µM |  |  |  |  |  |  |  |  |  |  |  |  | 1.32 µM |  |  |
| LC-2-ad (lung adenocarcinoma, adherent) | 0.683 | 1.06 µM |  |  | 0.761 | 1.46 µM | 0.347 | 0.567 | 0.489 µM | 0.85 | 7.87 µM |  |  | 0.922 | > 10 µM | 0.839 | 14.1 µM | 0.546 | 1.34 µM | 0.906 | > 2 µM | 0.119 µM |  |  |
